Laboratory results as given in PubChem BioAssay AID445 (National Center for Advancing Translational Sciences (NCATS), 2006).
Hit rate of the full screen: of about 110,000 compounds, about 40 (0.04%) were called active. This list was built around the results that the source calls inconclusive (neither active nor inactive); the mix of calls is not that of the screen. Calls follow the shape of the dose curve; as a rule, active = well fitted curve in the direction sought with a large enough effect in the signal ratio (not every such curve was filed as active); inconclusive = small, poorly fitted or top-dose-only effect, or a change in a side signal; inactive = flat fitted curve, though single readings scatter; the % refers to the signal ratio.

assay: IkB Signaling; settings: ABC-DLBCL IkBa-CBG/CBR dual luciferase ratio (green luciferase fused to IkBa over red control in OCI-Ly3 lymphoma cells), 4 h; IkBa stabilization activation: at 57.1 µM (top of the series), scaled: untreated 0%, proteasome inhibitor 100% unless noted;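 also: 0% = basal untreated cells and 100% = reference inhibitor full response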
Outline: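 Curves were fitted separately to fusion (green), unfused (red) and ratio luminescence, then classed by r2, magnitude and activity. Cells: OCI-Ly3, 4 h compound plus doxycycline at 37C; 10 uM MG-132 defined full response.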

Structure (SMILES) | IkBa stabilization activation
Cc1cc(C)cc(OCC(=O)NCC(c2ccc(Cl)cc2)N2CCCCC2)c1 (centres undefined) | inconclusive: 0.355% [signal inhibitor]
CC1CCc2c(sc3nnn(Cc4ccc(F)cc4)c(=O)c23)C1 (centres undefined) | inconclusive: 0.715% [signal inhibitor]
O=C(NCc1ccccc1)c1cc(-c2cccc(Cl)c2)on1 | inconclusive: 5.34% [signal inhibitor]
CCn1nc(C)c(Oc2ccccc2O)c1C | inconclusive: 3.66% [signal activator]
Cc1ccc(C)c(N2CCN(S(=O)(=O)c3ccc4oc(=O)c5ncn(C)c5c4c3)CC2)c1 | inactive
Cc1ccc(-n2ncc(-c3nnc(SCC(=O)NC4CCCC4)o3)c2N)cc1C | inconclusive: 1.39% [signal inhibitor]
CCCNC(=O)c1ccc2c(c1)N(Cc1cccc(C)c1)C(=O)c1ccccc1S2 | inconclusive: -0.081% [signal inhibitor]
OC[C@@H]1O[C@@H](n2cnc3c(SCc4ccccc4)ncnc32)[C@@H](O)[C@H]1O | inactive: -0.239% [at 11.4 µM, scaled: untreated 0%, proteasome inhibitor 100%]
CCCCCCCC/C=C\CCCCCCCC(=O)N[C@@H](CO)Cc1ccc(O)cc1 | inconclusive: 1.43% [signal inhibitor]
CCC(C)(C)n1nnnc1CN(Cc1cc2cc(OC)ccc2[nH]c1=O)C1CCCC1 | inactive
CCCCCCCCCCCCC/C=C\[C@@H](O)[C@H](CO)NC(C)=O | inactive
N=C(N)SCc1cccc(-c2nc3ccccc3c(=O)o2)c1 | inconclusive: 19.7% [signal inhibitor] [at 11.4 µM, scaled: untreated 0%, proteasome inhibitor 100%]
CCc1ccccc1NC(=O)c1cc(S(=O)(=O)N(CC)c2ccccc2)ccc1F | inconclusive: 3.72% [signal inhibitor]
CCc1nnc(NC(=O)CN2CCN(c3nc(-c4ccccc4)cs3)CC2)s1 | inconclusive: 3.57% [signal inhibitor]
COc1ccccc1-n1cnnc1SCC(=O)Nc1cc(C(C)(C)C)nn1-c1ccccc1 | inconclusive: 0.402% [signal inhibitor]
Cc1cc(-c2ccccc2)n(-c2ccc(C(=O)N3CCN(c4ncccn4)CC3)cc2)n1 | inconclusive: -2.96% [signal inhibitor]
CN(C)S(=O)(=O)c1ccc(S(=O)(=O)N(Cc2ccco2)Cc2ccccc2Cl)cc1 | inactive
O=C(CC1N=C2c3ccccc3N=C(SCC(=O)Nc3cccc(C(F)(F)F)c3)N2C1=O)NCc1cccs1 (centres undefined) | inconclusive: 16.4% [signal inhibitor]
O=C(Nc1cccc(Cl)c1)c1ccc2c(=O)n3c(nc2c1)CCCCC3 | inconclusive: -1.75% [signal inhibitor]
CCc1ccc(CN(Cc2ccco2)C(=O)c2ccccc2Cl)cc1 | inconclusive: 0.408% [signal inhibitor]
Cc1cc(C)c(C)c(S(=O)(=O)Nc2ccc(O)cc2)c1C | inconclusive: 1.54% [signal inhibitor]
CCOC(=O)c1cnn2c(C(F)(F)F)cc(-c3ccco3)nc12 | inactive

Structure (SMILES) | IkBa stabilization activation
COC(=O)c1sc(-c2ccccc2)cc1NC(=O)c1cccc(F)c1 | inconclusive: 1.52% [signal inhibitor]
O=C(CCNS(=O)(=O)c1cccc2nonc12)N1CCN(c2cccc(Cl)c2)CC1 | inconclusive: 2.28% [signal inhibitor]
O=C(NCc1ccc(F)cc1)C1CCN(C(=O)c2ccc(-n3ccc4ccccc43)s2)CC1 | inconclusive: 10.9% [signal inhibitor]
Cc1ccc(CN2CCCn3nc(C(=O)NCCC(C)C)cc3C2=O)cc1 | inactive
COc1cccc(CNC(=O)c2c(C)nn(-c3cccc(C)c3)c2-n2cccc2)c1 | inconclusive: 1.23% [signal inhibitor]
Cc1nc(N2CCOCC2)c2oc3ccccc3c2n1 | inactive
O=C(NCCCc1ccccc1)c1nn(-c2ccccc2F)nc1CO | inconclusive: -0.59% [signal inhibitor]
COc1ccc2nc3c(cc2c1)c(NC(=O)c1cccs1)nn3CC(C)C | inconclusive: -4.17% [signal inhibitor]
Cc1cccc2cc(CN(Cc3nnnn3Cc3ccccc3)C3CCCC3)c(=O)[nH]c12 | inconclusive: 2.12% [signal inhibitor]
Cc1cc(C)cc(-n2cnc3cc(C(=O)NCCc4ccccc4)ccc32)c1 | inconclusive: 0.208% [signal inhibitor]
CCOC(=O)c1c(Oc2ccc(C(=O)OC)cc2)nnc(-c2ccccc2)c1-c1ccccc1 | inconclusive: 0.452% [signal inhibitor]
CCN(C(=O)Cn1c(C(=O)OC)cc2oc3ccccc3c21)c1cccc(C)c1 | inconclusive: 1.42% [signal inhibitor]
CCOC(=O)C1CCN(C(=O)c2oc3ccc(S(=O)(=O)N4CCCCCC4)cc3c2C)CC1 | inconclusive: 6.45% [signal inhibitor]
O=C(c1cccc(Cl)c1)n1nc(-c2ccco2)nc1NCc1cccs1 | inconclusive: 6.55% [signal inhibitor]
O=C(NC1CCCCC1)C(c1ccccc1F)N(Cc1ccco1)C(=O)Cn1nnc2ccccc21 (centres undefined) | inactive
CCc1cc(C(=O)Cc2nc3ccccc3[nH]2)c(O)cc1O | inactive
N[C@H](Cc1ccc(O)c(I)c1)C(=O)O | inactive
Cc1cccc(NC(=O)c2cc(S(=O)(=O)N3CCCCC3)c[nH]2)c1C | inconclusive: -0.716% [signal inhibitor]
Cc1cccc(Cn2c(SCc3ccc(C(=O)N4CCCCCC4)cc3)nc3ccncc32)c1 | inconclusive: 1.96% [signal inhibitor]
COCCn1c(C)cc(C(=O)CSc2ccc(NC(C)=O)cc2)c1C | inactive
OCCSc1nc(-c2cccnc2)nc2ccccc12 | inactive
CC(=O)NCCNc1nc(-c2cccc(NS(C)(=O)=O)c2)nc2ccccc12 | inactive: -7.17% [at 11.4 µM, scaled: untreated 0%, proteasome inhibitor 100%]
